These are yes or no findings as the source states them, for the method shown. Binding seen in cells or lysates may run through a third protein. Some entries that bind do so weakly or less than the wild type. For some of these results: Tags and fused reporters may be left off the sequences shown. One block for each molecule: values may come before it.
How the values were obtained:
[1] = molecular target: T1, FLAG-tagged LRRC4 (human) (UniProt Q9HBW1); test: co-IP; transfected HEK293 or U251 cells lysed in IP buffer (25 mM Tris pH 7.5, 150 mM NaCl, 1% Triton X-100, 1 mM EDTA); antibody at 4 °C overnight, Protein A/G magnetic beads 2 h at 4 °C, four washes; western blot
T1 sequence: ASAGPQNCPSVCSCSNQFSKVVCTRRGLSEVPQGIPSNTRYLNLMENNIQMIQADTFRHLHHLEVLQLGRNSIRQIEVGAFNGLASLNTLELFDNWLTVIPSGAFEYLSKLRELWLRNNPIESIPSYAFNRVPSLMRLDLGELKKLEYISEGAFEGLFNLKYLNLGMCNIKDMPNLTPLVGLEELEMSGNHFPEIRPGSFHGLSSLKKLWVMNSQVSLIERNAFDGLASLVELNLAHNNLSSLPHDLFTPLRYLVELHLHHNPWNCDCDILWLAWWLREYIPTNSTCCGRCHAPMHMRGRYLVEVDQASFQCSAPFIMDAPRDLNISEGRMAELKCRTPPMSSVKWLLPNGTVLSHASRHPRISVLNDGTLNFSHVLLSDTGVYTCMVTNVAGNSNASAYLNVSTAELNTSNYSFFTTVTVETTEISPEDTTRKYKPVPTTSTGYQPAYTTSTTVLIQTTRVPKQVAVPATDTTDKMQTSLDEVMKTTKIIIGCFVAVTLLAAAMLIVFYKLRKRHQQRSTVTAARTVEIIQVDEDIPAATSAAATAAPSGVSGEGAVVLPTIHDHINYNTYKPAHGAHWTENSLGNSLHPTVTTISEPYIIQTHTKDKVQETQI

Amino acid sequences for entries named in this document (tags omitted). A change or cut given only in a name is not applied to a line headed by its entry. Chains listed by the source or under a name are the forms on record and can include a tag or linker. Residues count along the entry.
UniProt Q8TB45: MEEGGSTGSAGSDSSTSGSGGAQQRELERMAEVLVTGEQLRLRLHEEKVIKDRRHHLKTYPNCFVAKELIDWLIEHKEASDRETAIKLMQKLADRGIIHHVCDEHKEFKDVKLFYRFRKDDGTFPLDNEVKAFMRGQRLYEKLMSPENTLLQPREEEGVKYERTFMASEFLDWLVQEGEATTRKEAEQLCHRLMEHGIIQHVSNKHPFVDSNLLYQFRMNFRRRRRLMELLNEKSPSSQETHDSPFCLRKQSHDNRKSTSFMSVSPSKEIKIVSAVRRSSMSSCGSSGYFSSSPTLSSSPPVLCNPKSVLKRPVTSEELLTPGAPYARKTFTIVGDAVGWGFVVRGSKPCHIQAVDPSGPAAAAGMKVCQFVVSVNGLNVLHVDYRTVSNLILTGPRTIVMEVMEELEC
GFP-tagged DEPTOR DEP (1-329): residues 1-329 of Q8TB45
GST-fused PDZ domain of DEPTOR: residues 330-407 of Q8TB45

[2] = molecular target: T2, FLAG-tagged LRRC4 (443-653) (human) (UniProt Q9HBW1); test: as above
T2 sequence: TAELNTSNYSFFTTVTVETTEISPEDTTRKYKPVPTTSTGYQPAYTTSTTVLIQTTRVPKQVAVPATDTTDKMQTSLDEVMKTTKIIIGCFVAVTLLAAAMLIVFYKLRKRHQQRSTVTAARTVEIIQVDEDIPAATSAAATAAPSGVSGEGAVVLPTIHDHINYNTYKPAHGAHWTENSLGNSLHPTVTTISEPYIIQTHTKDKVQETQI

[3] = molecular target: GFP-tagged DEPTOR (UniProt Q8TB45); test: as above
[4] = molecular target: GFP-tagged DEPTOR DEP (1-329) (UniProt Q8TB45); test: as above
[5] = molecular target: GFP-tagged DEPTOR PDZ(330-407) (UniProt Q8TB45); test: as above
[6] = molecular target: GST-fused PDZ domain of DEPTOR (UniProt Q8TB45); test: pull-down; purified GST fusion proteins of DEPTOR on glutathione-Sepharose 4B beads incubated 4 h with lysate of HEK293 cells transfected with FLAG-tagged LRRC4, IP buffer, four washes; western blot; only the target purified
[7] = molecular target: GST-fused full-length DEPTOR (UniProt Q8TB45); test: as above

Molecule: DEPTOR (pCDNA3.1-DEPTOR) (from UniProt Q8TB45 1-409)
- binding [2]: binds

B3: FLAG-tagged LRRC4 (protein, UniProt Q9HBW1 39-653)
chain: ASAGPQNCPSVCSCSNQFSKVVCTRRGLSEVPQGIPSNTRYLNLMENNIQMIQADTFRHLHHLEVLQLGRNSIRQIEVGAFNGLASLNTLELFDNWLTVIPSGAFEYLSKLRELWLRNNPIESIPSYAFNRVPSLMRLDLGELKKLEYISEGAFEGLFNLKYLNLGMCNIKDMPNLTPLVGLEELEMSGNHFPEIRPGSFHGLSSLKKLWVMNSQVSLIERNAFDGLASLVELNLAHNNLSSLPHDLFTPLRYLVELHLHHNPWNCDCDILWLAWWLREYIPTNSTCCGRCHAPMHMRGRYLVEVDQASFQCSAPFIMDAPRDLNISEGRMAELKCRTPPMSSVKWLLPNGTVLSHASRHPRISVLNDGTLNFSHVLLSDTGVYTCMVTNVAGNSNASAYLNVSTAELNTSNYSFFTTVTVETTEISPEDTTRKYKPVPTTSTGYQPAYTTSTTVLIQTTRVPKQVAVPATDTTDKMQTSLDEVMKTTKIIIGCFVAVTLLAAAMLIVFYKLRKRHQQRSTVTAARTVEIIQVDEDIPAATSAAATAAPSGVSGEGAVVLPTIHDHINYNTYKPAHGAHWTENSLGNSLHPTVTTISEPYIIQTHTKDKVQETQI
- binding [6]: binds
- binding [7]: binds

Further lines, results first:

- binding [1]: binds
Molecule: endogenous DEPTOR (from UniProt Q8TB45 1-409)

- binding [3]: binds
B1: LRRC4 of Fig. 6b (protein, UniProt Q9HBW1 39-653)
chain: ASAGPQNCPSVCSCSNQFSKVVCTRRGLSEVPQGIPSNTRYLNLMENNIQMIQADTFRHLHHLEVLQLGRNSIRQIEVGAFNGLASLNTLELFDNWLTVIPSGAFEYLSKLRELWLRNNPIESIPSYAFNRVPSLMRLDLGELKKLEYISEGAFEGLFNLKYLNLGMCNIKDMPNLTPLVGLEELEMSGNHFPEIRPGSFHGLSSLKKLWVMNSQVSLIERNAFDGLASLVELNLAHNNLSSLPHDLFTPLRYLVELHLHHNPWNCDCDILWLAWWLREYIPTNSTCCGRCHAPMHMRGRYLVEVDQASFQCSAPFIMDAPRDLNISEGRMAELKCRTPPMSSVKWLLPNGTVLSHASRHPRISVLNDGTLNFSHVLLSDTGVYTCMVTNVAGNSNASAYLNVSTAELNTSNYSFFTTVTVETTEISPEDTTRKYKPVPTTSTGYQPAYTTSTTVLIQTTRVPKQVAVPATDTTDKMQTSLDEVMKTTKIIIGCFVAVTLLAAAMLIVFYKLRKRHQQRSTVTAARTVEIIQVDEDIPAATSAAATAAPSGVSGEGAVVLPTIHDHINYNTYKPAHGAHWTENSLGNSLHPTVTTISEPYIIQTHTKDKVQETQI

- binding [4]: no binding
- binding [5]: binds
B2: LRRC4 (pCDNA3.1-LRRC4) (protein, UniProt Q9HBW1 39-653)
chain: ASAGPQNCPSVCSCSNQFSKVVCTRRGLSEVPQGIPSNTRYLNLMENNIQMIQADTFRHLHHLEVLQLGRNSIRQIEVGAFNGLASLNTLELFDNWLTVIPSGAFEYLSKLRELWLRNNPIESIPSYAFNRVPSLMRLDLGELKKLEYISEGAFEGLFNLKYLNLGMCNIKDMPNLTPLVGLEELEMSGNHFPEIRPGSFHGLSSLKKLWVMNSQVSLIERNAFDGLASLVELNLAHNNLSSLPHDLFTPLRYLVELHLHHNPWNCDCDILWLAWWLREYIPTNSTCCGRCHAPMHMRGRYLVEVDQASFQCSAPFIMDAPRDLNISEGRMAELKCRTPPMSSVKWLLPNGTVLSHASRHPRISVLNDGTLNFSHVLLSDTGVYTCMVTNVAGNSNASAYLNVSTAELNTSNYSFFTTVTVETTEISPEDTTRKYKPVPTTSTGYQPAYTTSTTVLIQTTRVPKQVAVPATDTTDKMQTSLDEVMKTTKIIIGCFVAVTLLAAAMLIVFYKLRKRHQQRSTVTAARTVEIIQVDEDIPAATSAAATAAPSGVSGEGAVVLPTIHDHINYNTYKPAHGAHWTENSLGNSLHPTVTTISEPYIIQTHTKDKVQETQI

— publication PMC7269909
